In all, about 33,000 sequences were measured (“E-score (-0.5 to 0.5)”: median about -0.021, highest 2% from about 0.32 on). This is one part of the list.
Biological target: T1, Zap1 (UniProt P47043)
T1 sequence: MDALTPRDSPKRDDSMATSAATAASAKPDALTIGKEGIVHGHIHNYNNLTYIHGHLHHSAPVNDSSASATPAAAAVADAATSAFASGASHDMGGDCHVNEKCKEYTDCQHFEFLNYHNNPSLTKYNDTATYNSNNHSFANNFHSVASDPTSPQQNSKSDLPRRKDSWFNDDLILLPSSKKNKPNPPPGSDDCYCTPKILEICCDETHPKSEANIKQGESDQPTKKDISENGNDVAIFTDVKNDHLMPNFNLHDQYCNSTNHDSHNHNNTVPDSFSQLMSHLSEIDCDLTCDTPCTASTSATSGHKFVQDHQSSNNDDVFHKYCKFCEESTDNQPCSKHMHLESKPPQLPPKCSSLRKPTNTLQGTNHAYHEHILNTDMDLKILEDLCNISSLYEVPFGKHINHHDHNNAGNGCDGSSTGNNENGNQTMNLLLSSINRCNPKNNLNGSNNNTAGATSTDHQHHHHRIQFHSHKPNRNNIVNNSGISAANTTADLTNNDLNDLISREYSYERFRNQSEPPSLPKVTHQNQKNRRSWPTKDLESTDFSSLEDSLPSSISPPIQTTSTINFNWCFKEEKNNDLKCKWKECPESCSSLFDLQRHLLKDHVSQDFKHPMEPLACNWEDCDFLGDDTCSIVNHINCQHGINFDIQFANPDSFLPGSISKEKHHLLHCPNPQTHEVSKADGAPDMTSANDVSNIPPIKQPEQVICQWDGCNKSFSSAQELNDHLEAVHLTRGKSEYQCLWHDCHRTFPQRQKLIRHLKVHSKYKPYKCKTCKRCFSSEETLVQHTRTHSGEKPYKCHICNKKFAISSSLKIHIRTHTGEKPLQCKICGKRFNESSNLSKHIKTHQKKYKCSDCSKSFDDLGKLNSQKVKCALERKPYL
Test: PBM E-score (8-mer binding enrichment) (E-score (-0.5 to 0.5)); higher = stronger / more preferred TF binding; most listed sequences are background and not binding sites
Settings: protein concentration: 200 nM; construct: GST-full length
Procedure: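 Universal 'all 10-mer' protein binding microarrays (Agilent AMADID 015681) probed with GST-tagged S. cerevisiae TFs (full-length or DBD) made by in vitro transcription/translation (PURExpress), about 100-200 nM. Bound TF was detected with fluorescent anti-GST. Each ungapped 8-mer (which stands for itself and its reverse complement) is scored by the PBM enrichment score (E-score), a modified Wilcoxon-Mann-Whitney statistic from -0.5 to +0.5, computed with the Universal PBM Analysis Suite. Scale: above 0.35 generally sequence-specific binding.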

Sequence | PBM E-score
CATATTAG | 0.112
AGGCTCCA | -0.262
GTATGTAA | 0.157
GACCGGTC | -0.118
GACCTTCC | 0.0371
ACACGGAC | -0.183
CACAATTA | 0.00978
CTCAATCC | 0.0375
GGCGACTA | -0.221
TAGCCTCA | -0.0242
ACGCCAGC | -0.19
ATTTTACA | 0.0383
CTCCCCTA | -0.209
CGCCGCAG | -0.0452
CGCTTGCA | -0.0367
ATGGGCCC | -0.124
CAACGGAC | -0.172
AGGGCGTC | -0.131
CTTCGTGC | -0.0559
TCCCGACA | -0.137
AATAAGAA | 0.208
AGACTTCA | -0.0713
GTCCTCTA | -0.0992
AAAGAATA | 0.0369
AATTGGTA | 0.239

Sequence | PBM E-score
CCATTAGC | 0.0188
CGATTCAG | -0.0831
GCTGTCTA | -0.195
AAGAGTCT | -0.23
CAAGGTCG | 0.263
CGAGTTAA | 0.114
CGGGCCTC | -0.148
CACTGAAG | 0.0529
AAAACACC | 0.202
ACGACAAA | 0.213
ACGTAGCG | -0.259
CTTCAGCC | -0.0899
TACCACAA | 0.359
AGCAGGCA | -0.336
AGTCGATC | -0.187
TCCTAACA | 0.175
AAACGGCT | -0.359
AAGTGAAG | -0.133
ATGGAGTG | -0.179
ACTATCAT | -0.0255
AGTTCACA | 0.0502
AGGTTAGA | 0.185
TCAATCAA | 0.103
CTCAGGCC | -0.26
CGTGCCTA | -0.216

Sequence | PBM E-score
ACCGCAAC | 0.341
CGTATATC | -0.218
ATCCCCCC | -0.429
CGCCAGGC | -0.252
AGTACTCG | 0.0121
ACTCCGCT | -0.192
CTTTTCCA | 0.0307
GCGTTATA | 0.218
GACTCCCA | -0.295
CACATCAA | -0.0712
TACGTGCA | -0.0221
AGCTCTAG | -0.0907
GAATCAAC | 0.0243
CATGGGTC | 0.121
GGGTCGTA | 0.245
GACACGAA | 0.0447
ACCCCATA | 0.373
CCTTGAAG | 0.261
AGAAGGAT | -0.18
ACAGTCCC | -0.223
TAGGGGAA | -0.0351
CCGAATCA | -0.175
GCATGCAC | -0.164
GCCATTAA | 0.0139
CGCGTCAA | -0.0118

Sequence | PBM E-score
ATCGTGAG | -0.0882
ATACTAAA | 0.209
CGAATCTC | -0.111
AGCCAAAC | 0.0264
CTGCGTCC | -0.139
CAATCGGG | 0.0498
GGCTTTAA | 0.0849
GAGATCTC | -0.243
ATCCTGTA | 0.0994
TAGAGACA | -0.17
GGCATTAC | 0.0188
AGCAAATG | -0.171
AGATGAGC | -0.133
TATGTAGA | -0.049
CATGCAAG | -0.0958
CCGAGCTA | -0.263
CACGAGGA | -0.135
ATGGTGGC | -0.197
AAAAGTGA | 0.132
GGAACGGA | -0.0971
ATATTTAC | 0.141
GAGTCATA | 0.0211
GCACGCAA | -0.0909
CGCCTAGC | -0.394
CGCCTACA | 0.00538

Sequence | PBM E-score
AGTAACAA | 0.161
CTACAGAG | 0.00241
GGAATATA | 0.0159
CGGCGGGC | -0.0632
ACGCTGGG | -0.189
GGTAGTTA | 0.339
GTGATTCA | -0.0338
GGAGTCGA | -0.327
CAGATCAC | 0.0274
CGTACGAC | -0.126
CGTAATTA | 0.228
CGATGGAG | -0.0101
ACATATAC | -0.0961
AGGCAAGG | -0.237
CGGCAGGC | -0.34
ACTGGGAT | 0.106
ATGGACGG | 0.0838
CACCGTGG | -0.0703
CAGTCCGC | -0.258
AGCTAAAG | -0.0341
GGCTGCGA | -0.0139
CATCAAAG | 0.0848
AAACTATA | 0.0991
AAACCTTA | 0.288
ACTACGTG | -0.0538

Sequence | PBM E-score
ATGCGAGA | -0.0251
ACGACGCC | -0.251
CCGCTGCC | -0.27
CAAATACC | 0.213
AGGTGCGA | -0.0972
GCTGCTGA | -0.149
AGAAAGAA | -0.0809
AACCCCAG | 0.304
AACTGCGA | -0.221
ATTTTTCC | 0.0562
CTGGAAGA | -0.0219
AACCCCCG | -0.149
TAGATAGA | -0.0636
TCATTCGA | 0.0152
ATTGCAAC | 0.0809
CCAACGCC | -0.182
AAACCGGG | 0.265
CAAGCTGG | -0.204
CTAGTTCA | -0.00273
AGATCGGC | -0.193
AGGGATAG | -0.03
AGTCACAC | -0.299
TACTGATA | 0.216
AGATGTAG | -0.103
CTTTTTGC | 0.00228

Sequence | PBM E-score
ATTTAGAC | 0.103
GCGCGTAA | -0.091
AAAGAACC | 0.284
GCAGCGTA | -0.277
AAAGGCCT | 0.107
AACTTTCA | 0.252
GCTCTCCA | -0.183
CTGACCGA | -0.0913
ATACGCAA | 0.158
ACTGGGGA | -0.158
AACTGGAC | 0.00749
AGTCTTGA | -0.0607
AAGAAGCG | -0.162
CGATTCAC | -0.227
AATTATCA | 0.154
AGGACACG | -0.106
AGGGTCGC | 0.364
GAACGAGC | -0.119
AATAAGCA | 0.0757
ACGCCAAG | -0.159
CCGGGCTC | -0.232
GCGGGAAC | -0.224

Source: the supplement of paper PMC3334620
